Data on 21 variants can be found in the RNAGym collection of RNA variant scans (doi:10.7554/elife.90254).

The source gives no read counts; variants with many changes may rest on few reads.

To fix the notation:
B1: OR4K15 (parent)
chain: GUUAACGGUCAUAGGCCAUGGAAACUAGGAGCACCAUUUCGCUGCCAGUGAAGAAAUGAACAAAGAAAAUCUGGGCCAGGCAGGCAUCAAAAGAAAUAGUCUUGCGCUCAACCAGAAAGUCUGUAAUCAUUUUAAGGGUA

Variants of B1 are the subject of this data set. Nature of the data set: self-cleavage, relative activity (ratio to wild type); higher = more cleavage; in vitro, sequencing; the parent is a self-cleaving ribozyme.
In the case of GUUAACGGUCUUAGGCCAUGGAAACUAGGAGCACCAUUUCGCUGCCAGUGAAGAAAUGAACAAAGAAAAUCUGGGCCAGGCAGGCAUCGAAAGAAAUAGCCUUGCGCUCAACCAGAAAGUCUGUAAUCAUUCUAAGGGUA [A11U A89G U100C U132C], the self-cleavage was 2.07.

GUUAACGGUCUUAGGCCAUGGAAACUAGGAGCACCAUUACGCUGCCAGUGAAGAAAUGAACAAAGAAAAUCUGGGCCAGGCAGGCAUCAAAAGAAAUAGUCUCGCGCUCAACCAGAAAGUCUGUAAUCAUUUUAAGGGUA [A11U U39A U103C]: the self-cleavage amounted to 1.39. Turning to GUUAACGGUCUUAGGCCAUGGAAACUAGGAGCACCAUUUCGCUGCCAGUGAAGAAAUGAACAAAGAGAAUCUGGGCCAGGCAGGCAUCAGAAGAAAUAGUCUUGCGCUCAACCAGAAAGUCUGUAAUCAUUUUAAGGGUA [A11U A67G A90G], the self-cleavage is 1.3. With GUUAACGGUCUUAGGCCAUGGAAACUAGGAGCACCAUUUCGCUGCCAGUGAAGAAAUGAACAAAGAAAAUCUGGGCCAGGCAGGCAUCGAAUGAAAUAGUCUUGCGCUCAACCAGAAAGUCUGUAAUCAUUUUAAGGGUA [A11U A89G A92U], the self-cleavage came out at 0.84.

Regarding GUUAACGGUCUUAGGCCAUGGAAACUAGGAGCACCAUUUCGCUGCCAGUGAAGAAAUGAACAAAGAAAAUCUGGGCCGGGCAGGCAUCGAAAGAAAUAGUCUUGCGCUCAACCAGAAAGUCUGUAAACAUUUUAAGGGUA [A11U A78G A89G U127A], the self-cleavage was found to be 0.31.

On to GUUAACGGUCUUAGGCCAUGGAAACUAGGAGCACCAUUUCGCUGCCAGUGAAGAAAUGAACAAAGGAAAUCUGGGCCAGGCAGGCAUCAAAAGAAGUAGUCUUGCGCUCAACCAGAAAGUCUGUAAUCGUUUUAAGGGUA [A11U A66G A96G A129G], for which the self-cleavage was 1.02. Turning to GUUAACGGUCUUAGGCCAUGGAAACUAGGAGCACCACUUCGCUGCCAGUGAAGAAAUGAACAAAGAAAAUCUGGGCCAGGCAGGCAUCAAAAGAAAUAGUCUUGCGCUCAACCAGAAUGUCUGUAAUCAUUUUAAGGGUA [A11U U37C A118U], the self-cleavage was determined as 0.79. Consider GUUAACGGUCUUAGGCCAUGGAAACUAGGAGCACCAUUUCGCUGCCAGUGAAGAAAUGAACAAAGAAAAUCUGGGCCAGGCAGGCAUCAAAAGUAAUAGUCUUGCGCUCAACCAGAAAGUCUGUAGUCAUUUUAAGGGUA [A11U A94U A126G], for which the self-cleavage came out at 0.8. With GUUAACGGUCAAGGGCCAUGGAAACUAGGAGCACCAUUUCGCUGCCAGUGAAGGAAUGAACAAAGAAAAUCUGGGCCAGGCAGGCAUCAAAAGACAUAGUCUUGCGCUCAACCAGAGAGUCUGUAAUCAUUUUAAGGGUA [U12A A13G A54G A95C A117G], the self-cleavage came to 0.94. Under GUUAACGGUCUUAGGCCAUGGAAACUAGGAGCACCAUUCCGCUGCCAGUGAAGAAAUGAACAAAGAAAAUCUGGGCCAGGCAGGCAUCAGAGGAGAUAGUCUUGCGCUCAACCAGAAAGUCUGUAAGCAUUUUAAGGGUA [A11U U39C A90G A92G A95G U127G] stands 1.84; under GUUAACGGUCAAGGGCCAUGGAAACUAGGAGCACCAUUUCGCUGCCAGUGAAGAAAUGAACAAAGAAAAUCUGGGCCAGGCAGGCAUCAAAAGAAAUAGUCUUGCGCUCAACCAGAAAGUCUGUACUCAUUUUAAGGGUA [U12A A13G A126C], 0.68; under GUUAACGGUCAAAGGCCAUGGAAACUGGGAGCACCAUUUCGCUGCCAGUGAAGAAAUGAACAAAGAAAAUCUGGGCCAGGCAGGCGUCAAAAGAAAUAGUCUUGCGCUCAACCAGAAAGUCUGUAAUCGUUUUAAGGGUA [U12A A27G A86G A129G], 0.67. For GUUAACGGUCUUAGGCCAUGGAAACUAGGAGCACCAUUUCGCUGCCAGUGAAGAAAUGAACAAAGUAAAUCUGGGCCGGGCAGGCAUCAAAAGAAAUAGUCUUGCGCUCAACCAGAAAGUCUGUAAUCAUUUUAAGGGUA [A11U A66U A78G], the self-cleavage stood at 0.23.

With GUUAACGGUCUUAGGCCAUGGAAACUAGGAGCACCAUUUCGCUGCCAGUGAAGAAAUGAACAAAGAAAAUCUGGGCCAGACAGGCAUCAGAAGAAAUAGUCUCGCGCUCAACCAGAAAGUCUGUAAUCAUUUUAAAGGUA [A11U G80A A90G U103C G136A], the self-cleavage came to 0.02. Under GUUAACGGUCUUAGGCCAUGGAAACUAGGAGCACCAUUUCGCCGCCAGUGAAGAAAUGAACAAAGAAAAUCUGGGCCAGGCAGGCAUCAAGAGAAAUAGUCUUGCGCUCAACCAGAAAGUCUGUAAUCAUUUUAGGGGUA [A11U U43C A91G A135G] stands 0.27. Take GUUAACGGUCAAAGGCCUUGGAAGCUUGGAGCACCAUUUCGCUGCCAGUGAAGAAAUGAACAAAGAAAAUCUGGGCCAGGCAGGCAUCAAAAGAAAUAGUCUGGCGCUCAACCUGAAUGUCUGUAAUCAUUUUAAGGGUA [U12A A18U A24G A27U U103G A114U A118U]: the self-cleavage came out at 0.02. Consider GUUAACGGUCUUAGGCCAUGGAAACUAGGAGCACCAUUCCGCUGCCAGAGAAGAAGUGAACAAAGAAAAUCUGGGCCAGGCAGGCAUCAAAAGAAAUAGUCUUGCGCUCAACCAGAAAGUCUGUAAUCAUUUUAAGGGUA [A11U U39C U49A A56G], for which the self-cleavage turned out to be 0.89. Regarding GUUAACGGUCUUAGGCCAUGGAAACUAGGAGCACCAUUUAGCUGCCAGUGAAGAAAUGAACAAAGAAAAUCUGGGCCGGGCAGGCAUCAAAAGAAAUAGUCUUGCGCUCAACCAGAAAGUCUGUAAACAUUUUAAGGGUA [A11U C40A A78G U127A], the self-cleavage stood at 0.17. Under GUUAACGGUCUUAGGCCAUGGAAACUAGGAGCACCAUCUCGCUGCCAGUGGAGAGAUGAACAAAGAAAAUCUGGGCCAGGCAGGCAUCAAAAGAAAUAGUCUUGCGCUCAACCAGAAAGUCUGUAAUCACUUUAAGGGUA [A11U U38C A51G A55G U130C] stands 0.46. On to GUUAACGGUCAAAGGCCGUGGAAACUGGGAGCACCAUGUCGCUGCCAGUGAAGAAAUGAACAAAGAAAAUCUGGGCCAGGCAGGCAUCAAAAGAAAUAGUCUUGCGCUCAACCAGAAAGUCUGUAAUCAUUAUAAGGGUA [U12A A18G A27G U38G U132A], for which the self-cleavage is 0.69. Regarding GUUAACGGUCUUAGGCCAUGGAAACCAGGAGCACCAUUUCGCUGCCAGUGAAGAAAUGAACAAAGAAAAUCUGGGCCAGGCAGGCAUCAAAAGAAAUAGUCUUGCGCCCAACCAGAAAGUCUGUAAUCAUUUUAAGGGUA [A11U U26C U108C], the self-cleavage amounted to 0.01.
